Measurements from ChEMBL document CHEMBL4888484, “Replenishing the malaria drug discovery pipeline: Screening and hit evaluation of the MMV Hit Generation Library 1 (HGL1) against asexual blood stage Plasmodium falciparum ,using a nano luciferase reporter read-out” (2022).
Hit rate of the full screen: of about 150,000 compounds, about 540 (0.36%) showed an effect of 50% or more. The list shows a part of the results.

system: Plasmodium falciparum; assay: Primary screen in NF54 nanoGlo assay, in single point, at 2uM, 72h; a lower Z score goes with more inhibition; type: functional, Erythrocyte; settings: timepoint 72 hour

Going from `CCn1ncc(-c2cc(C(F)(F)F)nc(NC3CCCC3)n2)c1C` to `O[C@H]1CCc2cnn(Cc3nc(C(F)(F)F)cs3)c2C1`, the “% Inhibition” value rises from -28% to -7%.

Going from `COc1ccccc1CN1C(=O)[C@H](CC(=O)N2CCc3ccccc3C2)N=C1O` to `CC1CC(=O)N(C)c2ccc(NC(=O)N3CCc4ccccc4C3C(C)C)cc21` (stereo not given), the “% Inhibition” value rises from -5% to 2%.

First: CCCc1cnc(C)nc1NC[C@H]1CC[C@H](C(=O)NC)CC1
Second: Cc1cnc(C2CC2)n1[C@H]1CCN(C(=O)CCc2ccccc2)C1
The “% Inhibition” value of the first is higher: 2% for the first, -15% for the second.

First: Cc1ccc(N2CCOC2=O)c(-c2ccncc2)c1
Second: COc1ccc(C2=CCN(CC(=O)Nc3ccc(F)cc3F)C2)cc1
The “% Inhibition” value of the first is lower: -9% for the first, 27% for the second.

Compared with `Cc1cc(C(=O)N2CC[C@H](N(C)C)C2)sc1-c1cccc(Cl)c1`, `CC1CCCCN1C(=O)CC1Cn2ncc(-c3ccc(Cl)cc3)c2NC1=O` (stereo not given) is lower in “% Inhibition” value: -1% for the first, -17% for the second.

Going from `CCC1(CC)C(NC(=O)N2CCS(=O)(=O)C(C)C2C)C(C)C1OC` (stereo not given) to `CCOc1ccc(Cl)cc1CN(C)C(=O)N[C@H]1COC[C@@H]1O`, the “% Inhibition” value falls from -1% to -5%.

Going from `COC[C@H]1COCCN1C(=O)c1ncc2c(F)cccn12` to `CCOC(=O)C[C@H]1COCCN1C(=O)c1cn(CCC2CCCCC2)nn1`, the “% Inhibition” value rises from -10% to 10%.

Compared with `CCCn1nnnc1CNc1cccc2c1OCCO2`, `CCc1nsc(NCCc2ccccc2N2CCOCC2)n1` is higher in “% Inhibition” value: -6% for the first, 3% for the second.

First: CN(C)c1ccc(CCC(=O)N2CCC[C@](C)(C#N)C2)cc1
Second: C[C@@H](CN(C)CCO)NCc1ccc(C#N)cc1
The “% Inhibition” value of the first is lower: -13% for the first, -4% for the second.

Going from `Cc1cc(C)nc(-n2cc(C(=O)N3CCC[C@H](CCC(=O)O)C3)c(C(C)C)n2)n1` to `Cc1cc(C)n(CCN(C)C(=O)c2cccc3c2NCCC3)n1`, the “% Inhibition” value falls from 1% to -9%.

Compared with `O=S(=O)(c1cccc(Cl)c1)N1CC[C@H](CN2CCOCC2)C1`, `O=C(c1ccccc1F)N(CCN1CCOCC1)C[C@H]1CN(Cc2c(F)cccc2F)CCO1` is higher in “% Inhibition” value: -13% for the first, -5% for the second.

First: N#Cc1c(CN2C(=O)NC3(CCCCCCC3)C2=O)cn2ccccc12
Second: Cn1cc(CN2CCCC[C@@H]2CCc2cccc(O)c2)cc1C#N
The “% Inhibition” value of the first is higher: -10% for the first, -17% for the second.

First: Cc1nn(C)c(C)c1CCN/C(=N\c1ccc(F)cc1)NC(=O)c1ccc(F)c(F)c1
Second: Cc1cc(C)n(CC(=O)NCc2ccc(Cl)cc2)c(=O)c1-c1nc(-c2cccc(Cl)c2)no1
The “% Inhibition” value of the first is higher: -6% for the first, -15% for the second.

`CCCCc1nc(C)c(C#N)c2cc(OC)c(OC)cc12` and `Cc1cc(Br)cc(C)c1OCCOCCN(C)C` are the same in “% Inhibition” value: -3% for the first, -3% for the second.

Going from `Cc1ccc(CCNC(=O)N(C)C[C@H](C)c2nccs2)cn1` to `O=C(NCCc1ccc(Cl)s1)Nc1cn[nH]c1`, the “% Inhibition” value falls from -5% to -12%.

Compared with `Cc1cc(NC(=O)c2c(F)cccc2F)sn1`, `CNCC#CCOc1cccc(C)c1C` is higher in “% Inhibition” value: -17% for the first, -6% for the second.

First: O=C(C1CC(=O)N(c2cn[nH]c2)C1)N1CCC(Cc2ccc(F)cc2)C1 (stereo not given)
Second: O=S(=O)(NCc1ccc(N2CCCC2)cc1)c1cccc(Br)c1
The “% Inhibition” value of the first is lower: -6% for the first, -4% for the second.

Compared with `CCOc1ccc(CN2CCc3nc(N4CCC(C)CC4)ncc3C2)cc1`, `Cc1cc2n(n1)CCN(Cc1ccc(Cl)o1)C2` is higher in “% Inhibition” value: -12% for the first, -10% for the second.

First: CC(NC(Cc1ccccc1)C(=O)N1CCCCC1)c1cnccn1 (stereo not given)
Second: CC(C)(C)O[C@@H](C(=O)N1CC2(CNC(=O)O2)C1)c1ccccc1
The “% Inhibition” value of the first is higher: 9% for the first, 4% for the second.

Compared with `Cc1cc(S(=O)(=O)NC(=O)c2cnn(C(C)C)c2C)c(C)s1`, `CC(C)Cc1ccc(S(=O)(=O)N2CCC[C@H]2c2nnc(C(=O)Nc3ccc4c(c3)OCO4)s2)cc1` is higher in “% Inhibition” value: -13% for the first, -8% for the second.

Going from `C[C@@H](CC(=O)N1CCC(C#N)CC1)C1CC1` to `C[C@H]1CN(C(=O)Cc2ccc(F)cc2Cl)C[C@]1(O)C1CC1`, the “% Inhibition” value rises from -13% to -3%.

Compared with `CCCn1cnnc1CNCc1nc(C)c(C)n1C`, `COCCn1ccnc1-c1nc2c(cnn2Cc2cccnc2)[nH]1` is lower in “% Inhibition” value: -1% for the first, -7% for the second.

First: Cc1cc(NC2CN(c3ccncn3)C2)nc(C2CCC2)n1
Second: COc1ccccc1-c1c(C)nn2c(=O)c3c([nH]c12)CCCC3
The “% Inhibition” value of the first is higher: -2% for the first, -13% for the second.

First: COc1ccccc1OC1(C(=O)O)CCN(c2nnc(C(C)C)s2)CC1
Second: C#CCN1CCN(Cn2nnc3ccccc3c2=O)CC1
The “% Inhibition” value of the first is lower: -11% for the first, -3% for the second.

Going from `c1ccc(Nc2nc(-c3ccccc3)cc(-c3ccccc3)n2)cc1` to `O=S(=O)(Cc1ccccc1)NCC[C@H](O)C1CC1`, the “% Inhibition” value falls from 37% to -6%.

Going from `CCCCC(=O)N1CCC2(CC1)N[C@H](C(=O)N1CCCC1)Cc1[nH]cnc12` to `COc1ccc(NC(=O)CN2CCCC[C@@H]2C)cc1S(=O)(=O)N1CCCCC1`, the “% Inhibition” value falls from -2% to -8%.

Going from `C=CCOc1ccccc1CN(CC1CCN(CCOC)CC1)C[C@H]1CCCO1` to `OCC[C@H]1CN(Cc2c(Cl)cncc2Cl)CCN1Cc1ccco1`, the “% Inhibition” value falls from 0% to -10%.

With `COc1nc2c(cc1CN1CC[C@]3(OC)CC[C@@H](O)C[C@H]13)C(=O)N(C(C)C)C2` the “% Inhibition” value was 13%.

Going from `CCn1ncc(-c2cc(C(F)(F)F)nc(NC3CCCC3)n2)c1C` to `O[C@H]1CCc2cnn(Cc3nc(C(F)(F)F)cs3)c2C1`, the Z score falls from 3.32 to 0.84.

Going from `COc1ccccc1CN1C(=O)[C@H](CC(=O)N2CCc3ccccc3C2)N=C1O` to `CC1CC(=O)N(C)c2ccc(NC(=O)N3CCc4ccccc4C3C(C)C)cc21` (stereo not given), the Z score falls from 0.69 to -0.35.

First: CCCc1cnc(C)nc1NC[C@H]1CC[C@H](C(=O)NC)CC1
Second: Cc1cnc(C2CC2)n1[C@H]1CCN(C(=O)CCc2ccccc2)C1
The Z score of the first is lower: -0.26 for the first, 1.92 for the second.

Going from `Cc1ccc(N2CCOC2=O)c(-c2ccncc2)c1` to `COc1ccc(C2=CCN(CC(=O)Nc3ccc(F)cc3F)C2)cc1`, the Z score falls from 1.5 to -3.05.

First: Cc1cc(C(=O)N2CC[C@H](N(C)C)C2)sc1-c1cccc(Cl)c1
Second: CC1CCCCN1C(=O)CC1Cn2ncc(-c3ccc(Cl)cc3)c2NC1=O (stereo not given)
The Z score of the first is lower: 0.11 for the first, 1.95 for the second.

First: CCC1(CC)C(NC(=O)N2CCS(=O)(=O)C(C)C2C)C(C)C1OC (stereo not given)
Second: CCOc1ccc(Cl)cc1CN(C)C(=O)N[C@H]1COC[C@@H]1O
The Z score of the first is lower: 0.12 for the first, 0.96 for the second.

Compared with `COC[C@H]1COCCN1C(=O)c1ncc2c(F)cccn12`, `CCOC(=O)C[C@H]1COCCN1C(=O)c1cn(CCC2CCCCC2)nn1` is lower in Z score: 1.23 for the first, -1.2 for the second.

Compared with `CCCn1nnnc1CNc1cccc2c1OCCO2`, `CCc1nsc(NCCc2ccccc2N2CCOCC2)n1` is lower in Z score: 0.79 for the first, -0.62 for the second.

First: CN(C)c1ccc(CCC(=O)N2CCC[C@](C)(C#N)C2)cc1
Second: C[C@@H](CN(C)CCO)NCc1ccc(C#N)cc1
The Z score of the first is higher: 1.51 for the first, 0.5 for the second.

Compared with `Cc1cc(C)nc(-n2cc(C(=O)N3CCC[C@H](CCC(=O)O)C3)c(C(C)C)n2)n1`, `Cc1cc(C)n(CCN(C)C(=O)c2cccc3c2NCCC3)n1` is higher in Z score: -0.16 for the first, 1.74 for the second.

Compared with `O=S(=O)(c1cccc(Cl)c1)N1CC[C@H](CN2CCOCC2)C1`, `O=C(c1ccccc1F)N(CCN1CCOCC1)C[C@H]1CN(Cc2c(F)cccc2F)CCO1` is lower in Z score: 2.6 for the first, 0.5 for the second.

Compared with `N#Cc1c(CN2C(=O)NC3(CCCCCCC3)C2=O)cn2ccccc12`, `Cn1cc(CN2CCCC[C@@H]2CCc2cccc(O)c2)cc1C#N` is higher in Z score: 1.42 for the first, 1.46 for the second.

First: Cc1nn(C)c(C)c1CCN/C(=N\c1ccc(F)cc1)NC(=O)c1ccc(F)c(F)c1
Second: Cc1cc(C)n(CC(=O)NCc2ccc(Cl)cc2)c(=O)c1-c1nc(-c2cccc(Cl)c2)no1
The Z score of the first is lower: 1.14 for the first, 1.47 for the second.

Compared with `CCCCc1nc(C)c(C#N)c2cc(OC)c(OC)cc12`, `Cc1cc(Br)cc(C)c1OCCOCCN(C)C` is higher in Z score: 0.43 for the first, 0.47 for the second.

Compared with `Cc1ccc(CCNC(=O)N(C)C[C@H](C)c2nccs2)cn1`, `O=C(NCCc1ccc(Cl)s1)Nc1cn[nH]c1` is higher in Z score: 0.4 for the first, 2.34 for the second.

Compared with `Cc1cc(NC(=O)c2c(F)cccc2F)sn1`, `CNCC#CCOc1cccc(C)c1C` is lower in Z score: 2.85 for the first, 0.63 for the second.

Going from `O=C(C1CC(=O)N(c2cn[nH]c2)C1)N1CCC(Cc2ccc(F)cc2)C1` (stereo not given) to `O=S(=O)(NCc1ccc(N2CCCC2)cc1)c1cccc(Br)c1`, the Z score falls from 0.71 to 0.6.

Compared with `CCOc1ccc(CN2CCc3nc(N4CCC(C)CC4)ncc3C2)cc1`, `Cc1cc2n(n1)CCN(Cc1ccc(Cl)o1)C2` is lower in Z score: 1.68 for the first, 1.47 for the second.

Going from `CC(NC(Cc1ccccc1)C(=O)N1CCCCC1)c1cnccn1` (stereo not given) to `CC(C)(C)O[C@@H](C(=O)N1CC2(CNC(=O)O2)C1)c1ccccc1`, the Z score rises from -0.79 to -0.46.

First: Cc1cc(S(=O)(=O)NC(=O)c2cnn(C(C)C)c2C)c(C)s1
Second: CC(C)Cc1ccc(S(=O)(=O)N2CCC[C@H]2c2nnc(C(=O)Nc3ccc4c(c3)OCO4)s2)cc1
The Z score of the first is lower: 1.22 for the first, 1.56 for the second.

First: C[C@@H](CC(=O)N1CCC(C#N)CC1)C1CC1
Second: C[C@H]1CN(C(=O)Cc2ccc(F)cc2Cl)C[C@]1(O)C1CC1
The Z score of the first is higher: 1.17 for the first, 0.43 for the second.

Compared with `CCCn1cnnc1CNCc1nc(C)c(C)n1C`, `COCCn1ccnc1-c1nc2c(cnn2Cc2cccnc2)[nH]1` is higher in Z score: 0.14 for the first, 1.08 for the second.

First: Cc1cc(NC2CN(c3ccncn3)C2)nc(C2CCC2)n1
Second: COc1ccccc1-c1c(C)nn2c(=O)c3c([nH]c12)CCCC3
The Z score of the first is lower: 0.27 for the first, 2.4 for the second.

First: COc1ccccc1OC1(C(=O)O)CCN(c2nnc(C(C)C)s2)CC1
Second: C#CCN1CCN(Cn2nnc3ccccc3c2=O)CC1
The Z score of the first is higher: 1.91 for the first, 0.25 for the second.

Compared with `c1ccc(Nc2nc(-c3ccccc3)cc(-c3ccccc3)n2)cc1`, `O=S(=O)(Cc1ccccc1)NCC[C@H](O)C1CC1` is higher in Z score: -4.83 for the first, 0.92 for the second.

Going from `CCCCC(=O)N1CCC2(CC1)N[C@H](C(=O)N1CCCC1)Cc1[nH]cnc12` to `COc1ccc(NC(=O)CN2CCCC[C@@H]2C)cc1S(=O)(=O)N1CCCCC1`, the Z score rises from 0.27 to 1.53.

Compared with `C=CCOc1ccccc1CN(CC1CCN(CCOC)CC1)C[C@H]1CCCO1`, `OCC[C@H]1CN(Cc2c(Cl)cncc2Cl)CCN1Cc1ccco1` is higher in Z score: 0.04 for the first, 1.31 for the second.

Work on `COc1nc2c(cc1CN1CC[C@]3(OC)CC[C@@H](O)C[C@H]13)C(=O)N(C(C)C)C2` yielded a Z score of -1.72.
